Among all 150,000 compounds or so, about 540 (0.36%) showed an effect of 50% or more. The list shows a part of the results.

The subject of this assay is Plasmodium falciparum. The experiment in a line: Primary screen in NF54 nanoGlo assay, in single point, at 2uM, 72h; a lower Z score goes with more inhibition. It is filed as functional, Erythrocyte. Conditions: timepoint 72 hour.
One may read the % Inhibition as the relative decrease from the control value, in per cent. As for `CCn1c(CCC(=O)Nc2ccc3c(c2)CCC3)nc2cc(S(N)(=O)=O)ccc21`, the “% Inhibition” value was 1% and the Z score is listed as -0.09.

For `O=C(COc1ccc(Cl)cc1Br)Nc1nnc(C2CC2)s1`, the “% Inhibition” value is given as -3% and the Z score came to 0.56.

With `CC(C)(C[C@H]1CCCN(C(=O)C2(C)CCCC2)C1)C(N)=O`, the “% Inhibition” value is -4% and the Z score was determined as 0.57.

As for `N#CC1(NC(=O)c2cc3c(cc2O)CCCC3)CCCC1`, the “% Inhibition” value is 0% and the Z score is -0.05.

With `c1ccc(CCn2nnc3ccccc32)cc1`, the “% Inhibition” value is -3% and the Z score is 0.38.

On to `CC1CCCN(C(=O)c2cc3c([nH]c2=O)CCCC3O)CC1` (stereo unspecified), for which the “% Inhibition” value is listed as -9% and the Z score was determined as 1.25.

Regarding `O=C(Cn1cccnc1=O)Nc1nc2cc(F)c(F)cc2s1`, the “% Inhibition” value is recorded as -22% and the Z score is on record as 1.98.

As for `COc1ccc(-c2cc(C(F)(F)F)nc(-n3nc(-c4cccc(C)c4)c(C)c3-c3cccc(C)c3)n2)cc1`, the “% Inhibition” value is -7% and the Z score is on record as 1.42.

For `CC(=O)N1CCC(N2CCC[C@H](C(=O)c3ccc4c5c(cccc35)CC4)C2)CC1`, the “% Inhibition” value was -11% and the Z score was found to be 1.6.

For `Cc1nc(-c2cc3c(s2)CCN(C(=O)c2cccnc2)C3)cs1`, the “% Inhibition” value is listed as -15% and the Z score was 1.26.

For `COCCN(Cc1ccc(OC)c(OS(=O)(=O)c2ccc(F)cc2)c1)S(=O)(=O)c1ccc(C)cc1`, the “% Inhibition” value is listed as -14% and the Z score was 2.72.

Turning to `O=C(NCc1cccnc1)c1nn(-c2ccccc2)c(=O)c2ccccc12`, the “% Inhibition” value came out at 29% and the Z score is reported as -3.25.

Take `Cc1cc(O)ccc1NC(=O)Cc1ccn(-c2ccccc2)n1`: the “% Inhibition” value worked out at 1% and the Z score is -0.09.

`C[C@@H](Cc1ccccn1)N(C)C(=O)c1cc2sccc2[nH]1`: the “% Inhibition” value is recorded as -26% and the Z score is 3.36.

As to `O=C(CCNc1ncccn1)Nc1nc(C2CC2)n[nH]1`, the “% Inhibition” value turned out to be 1% and the Z score is -0.1.

For `O=C(CC1CCCCC1)N1CCC(n2c(-c3ccccc3)nc3ccc(F)cc32)CC1`, the “% Inhibition” value is on record as -4% and the Z score worked out at 0.45.

Regarding `CC1(C)CN(Cc2csc(-c3ncccn3)n2)CCO1`, the “% Inhibition” value was -5% and the Z score worked out at 0.78.

Turning to `Cc1ccc(Cn2ncc3c2NC(=O)C[C@]32C(=O)Nc3ccc(Cl)cc32)cc1`, the “% Inhibition” value is -9% and the Z score is 1.1.

As for `O=C(Nc1ccc(NC[C@H]2CCCO2)c(F)c1)c1cc(C2CC2)[nH]n1`, the “% Inhibition” value was -11% and the Z score is given as 2.

`Oc1ccccc1-c1nc(Oc2ccccc2Cl)c2ccccc2n1`: the “% Inhibition” value worked out at 22% and the Z score is -2.54.

On to `COC(=O)C12CCCC1CN(C(=O)c1cc(Cl)c[nH]1)C2` (stereo unspecified), for which the “% Inhibition” value is reported as -5% and the Z score came out at 0.8.

In the case of `COc1cccc(CNCc2ccc3nsnc3c2)c1O[C@@H](C)C(=O)O`, the “% Inhibition” value is -15% and the Z score is 1.42.

For `Fc1cccc(CCCn2cncn2)c1`, the “% Inhibition” value was 0% and the Z score is reported as -0.01.

On to `Cc1nc(N2CCC(OC3CCOCC3)CC2)nc(C)c1CC(C)C`, for which the “% Inhibition” value was -6% and the Z score is 0.68.

`COc1ccc(C[C@H](C)N(C)S(=O)(=O)c2cnc(C)s2)cc1`: the “% Inhibition” value is -18% and the Z score is 1.63.

Regarding `CN(C(=O)c1coc(COc2ccc(F)cc2Cl)n1)C1CCOCC1`, the “% Inhibition” value is listed as -10% and the Z score is on record as 1.76.

On to `COc1ccc(C)cc1NC(=O)N1C[C@H](c2nc(-c3ccncc3)no2)[C@@H](C)C1`, for which the “% Inhibition” value worked out at 4% and the Z score is given as -0.49.

On to `CC1CN(CN2C(=O)C(=O)c3c(Br)cccc32)CC(C)O1` (stereo unspecified), for which the “% Inhibition” value is given as -6% and the Z score was determined as 1.

Consider `COc1cc(NC(=O)N(C)Cc2ccco2)ncn1`, for which the “% Inhibition” value was found to be 30% and the Z score was -3.41.

For the molecule `CC(C)N(CC(F)(F)F)C(=O)c1ncoc1-c1cccs1`, the “% Inhibition” value was -16% and the Z score came to 2.14.

For `O=S1(=O)CCC[C@H](Cc2ncc(C(F)(F)F)cc2Cl)C1`, the “% Inhibition” value turned out to be 4% and the Z score was -0.76.

Consider `Cc1cnn(CC2CCCN2C2CCOC2=O)c1` (stereo unspecified), for which the “% Inhibition” value was -7% and the Z score came to 1.12.

As for `CCc1ccc(-c2c(-c3ccccc3)ncn2CCN2CCC[C@H](CO)C2)nc1`, the “% Inhibition” value is given as -10% and the Z score turned out to be 2.

Take `Cc1cc[n+]2c(-c3ccccc3)cc(-c3ccccc3)nc2c1`: the “% Inhibition” value was 60% and the Z score was -11.27.

On to `Fc1cc(Br)ccc1-c1noc(-c2cn(C[C@H]3CCOC3)nn2)n1`, for which the “% Inhibition” value is -6% and the Z score was 1.22.

Turning to `Cc1cccnc1CN(Cc1ccccc1)C(=O)[C@H]1CC[C@H](O)CC1`, the “% Inhibition” value is reported as -1% and the Z score is 0.21.

As for `Cc1cc(C(=O)N2CCOCC2)nn1CC(=O)NCCc1ccccc1`, the “% Inhibition” value is given as -3% and the Z score is 0.54.

Regarding `Cn1ncc(C(N)=O)c1NCc1cccc(C2CC2)c1`, the “% Inhibition” value is -2% and the Z score is listed as 0.41.

In the case of `CC[C@H]1CC[C@H](C(=O)NS(=O)(=O)CC(F)(F)F)CC1`, the “% Inhibition” value is reported as -12% and the Z score is on record as 1.63.

Turning to `CC(C)c1nc(NC2CCN(c3cc(=O)[nH]c(N)n3)CC2)c2cnn(C)c2n1`, the “% Inhibition” value is on record as -15% and the Z score stood at 2.81.

With `Cc1ccc(C(=O)N2CCO[C@H](c3nccs3)C2)cc1Oc1ccncc1`, the “% Inhibition” value is on record as -2% and the Z score came out at 0.3.

For `O=C(NC1CCCC1)c1c(O)nc2c(c1O)CCCC2`, the “% Inhibition” value is reported as -12% and the Z score stood at 1.43.

In the case of `Cc1ncsc1CCN(C)Cc1ccc(O)cc1Cl`, the “% Inhibition” value is reported as -5% and the Z score was 0.66.

(Values after ChEMBL document CHEMBL4888484, “Replenishing the malaria drug discovery pipeline: Screening and hit evaluation of the MMV Hit Generation Library 1 (HGL1) against asexual blood stage Plasmodium falciparum ,using a nano luciferase reporter read-out” (2022).)
